Results taken from the antibiotic and cytotoxicity screens of Wong et al. (2023).
The other results are listed elsewhere or left out.

What follows are compounds tested on HepG2 (assay: cytotoxicity call (relative viability < 0.9)). Conditions: 10 µM.
With `C[C@@H]1CN([C@@H](C)CO)C(=O)c2cc(NS(C)(=O)=O)ccc2O[C@@H]1CN(C)C(=O)Nc1ccc(C(F)(F)F)cc1` the cytotoxicity call was “active”. With `Cc1cc(C(=O)Nc2cccc3c2O[C@@H](CN(C)S(=O)(=O)c2ccc(Cl)cc2)[C@@H](C)CN([C@H](C)CO)C3=O)n(C)n1` the cytotoxicity call was “inactive”. In the case of `C[C@@H]1CN([C@H](C)CO)C(=O)c2cc(NC(=O)CCC(F)(F)F)ccc2O[C@@H](C)CCCCO[C@@H]1CN(C)Cc1ccccc1`, the cytotoxicity call is reported as “inactive”. `COc1ccc(NC(=O)N(C)C[C@@H]2Oc3ncc(C#C[C@@H](C)O)cc3C(=O)N([C@@H](C)CO)C[C@H]2C)cc1` was tested, and the cytotoxicity call was “inactive”. For `C[C@@H]1CN([C@@H](C)CO)C(=O)Cc2cc(NS(C)(=O)=O)ccc2O[C@@H]1CN(C)S(=O)(=O)c1cn(C)cn1`, the cytotoxicity call was “inactive”.

The compounds below were run on S. aureus RN4220 (assay: growth inhibition call (relative growth <= 0.2)). Conditions: 50 µM.
With `CO[C@H]1O[C@H](CO)[C@@H](OC(=O)c2ccc(Br)cc2)[C@@H]2OC(=O)[C@@H](Cc3ccccc3)C/C=C/C[C@H](Cc3ccccc3)C(=O)O[C@@H]12` the growth inhibition call was “inactive”. With `C[C@H](O)C#Cc1ccc2c(c1)O[C@H](CN(C)C)[C@@H](C)CN([C@H](C)CO)S2(=O)=O` the growth inhibition call was “inactive”. With `C[C@H]1CN([C@@H](C)CO)S(=O)(=O)c2ccc(C#Cc3ccccc3)cc2O[C@H]1CN(C)C(=O)CN(C)C` the growth inhibition call was “active”. In the case of `C[C@H](CO)N1C[C@H](C)[C@H](CN(C)S(=O)(=O)c2ccc(Cl)cc2)OCCCC[C@H](C)Oc2ccc(NS(=O)(=O)c3ccc(Cl)cc3)cc2C1=O`, the growth inhibition call is reported as “inactive”. With `C[C@H]1CC=CC[C@@H](c2cccc(Cl)c2)NC(=O)[C@H](Cc2ccccc2)N(C)C(=O)c2ccccc2O1` the growth inhibition call was “inactive”. For `C[C@@H]1CCCCO[C@H](CN(C)Cc2ccccc2)[C@H](C)CN([C@@H](C)CO)C(=O)c2cc(NS(=O)(=O)c3ccc(Cl)cc3)ccc2O1`, the growth inhibition call was “inactive”. For `C[C@H](CO)N1C[C@H](C)[C@H](CN(C)CC2CCCCC2)Oc2ccc(NC(=O)Nc3ccc(C(F)(F)F)cc3)cc2C1=O`, the growth inhibition call was “active”. In the case of `CN(C)CCCNC(=O)C[C@H]1C=C[C@@H](NC(=O)Cc2cccnc2)[C@H](CO)O1`, the growth inhibition call is reported as “inactive”. `CCCCNc1ccc(C(=O)OCCN(C)C)cc1.Cl` was tested, and the growth inhibition call was “inactive”. For `C=CCN(C(=O)[C@H]1N(CCOCCO)C(=O)[C@H]2[C@H](C(=O)O)[C@@H]3C=C[C@@]21O3)C(C)(C)C`, the growth inhibition call was “inactive”. For `C[C@@H]1CN([C@H](C)CO)S(=O)(=O)c2ccc(C#Cc3ccncc3)cc2O[C@H]1CN(C)C(=O)C1CCCCC1`, the growth inhibition call was “inactive”. In the case of `C[C@@H]1CN([C@H](C)CO)C(=O)c2cc(NC(=O)CCCN(C)C)ccc2O[C@@H]1CN(C)C(=O)Nc1ccc2c(c1)OCO2`, the growth inhibition call is reported as “inactive”. With `CC(=O)Nc1cc2c(cc1N)OCCO2` the growth inhibition call was “inactive”. For `C[C@H](CO)N1C[C@H](C)[C@@H](CN(C)S(=O)(=O)c2ccc(F)cc2)Oc2ccc(NS(=O)(=O)c3cn(C)cn3)cc2CC1=O`, the growth inhibition call was “inactive”. In the case of `Cc1noc(C)c1NC(=O)N(C)C[C@H]1OCCCC[C@H](C)Oc2ccc(NC(=O)Nc3ccc4c(c3)OCO4)cc2C(=O)N([C@H](C)CO)C[C@@H]1C`, the growth inhibition call is reported as “inactive”. `C[C@@H]1CN([C@H](C)CO)C(=O)c2cccc(NC(=O)c3ccc(-c4nccs4)cc3)c2O[C@@H]1CN(C)Cc1ccc(Cl)c(Cl)c1` was tested, and the growth inhibition call was “inactive”. In the case of `O=C(C[C@@H]1C[C@@H]2c3cc(NC(=O)Nc4ccc(C(F)(F)F)cc4)ccc3O[C@@H]2[C@H](CO)O1)NC1CCCCC1`, the growth inhibition call is reported as “inactive”. `COc1ccc([Si](C)(C)[C@H]2[C@H](CCO)O[C@@]3(C(=O)N(Cc4ccccc4)c4ccc(N5C(=O)COc6ccccc65)cc43)[C@@H]2C)cc1` was tested, and the growth inhibition call was “inactive”. With `C[C@@H]1CN([C@@H](C)CO)C(=O)c2cc(NC(=O)Nc3ccc4c(c3)OCO4)ccc2O[C@@H](C)CCCCO[C@@H]1CN(C)S(=O)(=O)c1ccc(Cl)cc1` the growth inhibition call was “inactive”. For `CN1CCC(Nc2nc(Nc3ccc(Oc4ccccc4)cc3)c3c(O)ncc(Br)c3n2)CC1`, the growth inhibition call was “inactive”. For `COc1ccc(S(=O)(=O)Nc2cccc3c2O[C@H](CN(C)Cc2ccc(-c4ccccc4)cc2)[C@@H](C)CN([C@@H](C)CO)C3=O)cc1`, the growth inhibition call was “inactive”. In the case of `C[C@@H]1CN([C@@H](C)CO)C(=O)c2cc(NS(=O)(=O)c3ccccc3)ccc2O[C@H]1CN(C)S(=O)(=O)c1cn(C)cn1`, the growth inhibition call is reported as “inactive”. With `NCC[C@H]1CC[C@@H](NC(=O)NC2CCCCC2)[C@H](CO)O1` the growth inhibition call was “inactive”. With `C[C@H]1CN([C@@H](C)CO)C(=O)c2cc(NC(=O)Nc3ccc(F)cc3)ccc2O[C@@H]1CN(C)Cc1ccc(Oc2ccccc2)cc1` the growth inhibition call was “inactive”. In the case of `CC(C)NC(=O)Nc1cccc2c1O[C@H](CN(C)Cc1ccc(Oc3ccccc3)cc1)[C@H](C)CN([C@@H](C)CO)C2=O`, the growth inhibition call is reported as “inactive”. With `C[C@H]1[C@@H](c2ccccc2)OC(=O)CC[C@H](O)[C@@H](O)C[C@@H](CC(=O)NCc2ccc(Cl)cc2)C(=O)N1C` the growth inhibition call was “inactive”. In the case of `C[C@@H]1CN([C@@H](C)CO)C(=O)c2cc(NC(=O)Nc3ccccc3)ccc2O[C@@H](C)CCCCO[C@H]1CN(C)Cc1ccc(C(=O)O)cc1`, the growth inhibition call is reported as “inactive”. For `COCC#Cc1ccc([C@H]2[C@@H](CO)N3C(=O)CN(C(=O)c4cccnc4)C[C@H]23)cc1`, the growth inhibition call was “inactive”. In the case of `Oc1ccc2c(c1)OCC1(O)Cc3cc(O)c(O)cc3C21` (stereo not given), the growth inhibition call is reported as “inactive”. For `Cc1nc2c(c(C)nn2-c2ccccc2)c(C)c1CN`, the growth inhibition call was “inactive”. `C[C@@H]1CCCCO[C@@H](CN(C)Cc2ccncc2)[C@H](C)CN([C@@H](C)CO)C(=O)c2cc(NC(=O)Nc3ccccc3)ccc2O1` was tested, and the growth inhibition call was “inactive”. `C[C@H](CO)N1C[C@H](C)[C@@H](CN(C)S(=O)(=O)c2ccc3ccccc3c2)OCc2cnnn2CCCC1=O` was tested, and the growth inhibition call was “inactive”. In the case of `C[C@@H]1CCCCO[C@@H](CN(C)C(=O)Cc2ccccc2)[C@@H](C)CN([C@@H](C)CO)C(=O)c2cc(NC(=O)CCC(F)(F)F)ccc2O1`, the growth inhibition call is reported as “inactive”. For `C[C@H](CO)N1C[C@H](C)[C@@H](CN(C)Cc2ccc(C(=O)O)cc2)OCCCC[C@H](C)Oc2ccc(NC(=O)Nc3cccc4ccccc34)cc2C1=O`, the growth inhibition call was “inactive”. For `CCN1CCN(Cc2ccc(C(=O)Nc3ccc(C)c(Oc4ccc5c(c4)CC(=O)N5)c3)cc2C(F)(F)F)CC1`, the growth inhibition call was “inactive”. `C[C@@H]1CN([C@@H](C)CO)C(=O)c2cc(NS(C)(=O)=O)ccc2O[C@@H]1CN(C)C(=O)Nc1ccc(C(F)(F)F)cc1` was tested, and the growth inhibition call was “inactive”. For `Cc1cc(C(=O)Nc2cccc3c2O[C@@H](CN(C)S(=O)(=O)c2ccc(Cl)cc2)[C@@H](C)CN([C@H](C)CO)C3=O)n(C)n1`, the growth inhibition call was “inactive”. With `C[C@@H]1CN([C@H](C)CO)C(=O)c2cc(NC(=O)CCC(F)(F)F)ccc2O[C@@H](C)CCCCO[C@@H]1CN(C)Cc1ccccc1` the growth inhibition call was “inactive”. For `COc1ccc(NC(=O)N(C)C[C@@H]2Oc3ncc(C#C[C@@H](C)O)cc3C(=O)N([C@@H](C)CO)C[C@H]2C)cc1`, the growth inhibition call was “inactive”. With `C[C@@H]1CN([C@@H](C)CO)C(=O)Cc2cc(NS(C)(=O)=O)ccc2O[C@@H]1CN(C)S(=O)(=O)c1cn(C)cn1` the growth inhibition call was “inactive”.
